Out of some 150,000 compounds screened, about 540 (0.36%) showed an effect of 50% or more. Some of the results follow.
These compounds were tested on Plasmodium falciparum (assay: Primary screen in NF54 nanoGlo assay, in single point, at 2uM, 72h; a lower Z score goes with more inhibition). Settings: timepoint 72 hour.
Assay type: functional, Erythrocyte

Row | Structure (SMILES) | % Inhibition | Z score
1 | NS(=O)(=O)c1ccccc1CNC(=O)N1CCCC2(CCCC2)CC1 | -9% | 1.58
2 | O=C(Nc1cc(Oc2ccc(F)cc2)cc(Oc2ccc(F)cc2)c1)c1nn2c(C(F)(F)F)cc(-c3cccs3)nc2c1Cl | -6% | 0.99
3 | CCOc1ccc(-c2cc3c(N4CCC(C(=O)NCc5ccc6c(c5)OCO6)CC4)nccn3n2)cc1 | 9% | -0.92
4 | CC1CCCCC1NC(=O)CON=C(N)Cc1ccccc1Cl (configuration not stated) | 8% | -1.04
5 | CCN1CCC([C@H]2c3nccn3CCCN2Cc2ccccc2)CC1 | 3% | -0.49
6 | CN(Cc1cscn1)C(=O)Nc1nc2ccccc2s1 | -2% | 0.38
7 | CCC(CC)S(=O)(=O)NC(=O)c1ccccc1 | -12% | 1.24
8 | COc1ccc(C(C)(C)C)cc1S(=O)(=O)NCC(C)C | 6% | -0.76
9 | Fc1ccc(COc2ncccn2)cc1 | -17% | 2.49
10 | Cc1nn(C)c(C)c1CN[C@@H]1CCCc2c(F)cc(F)cc21 | -5% | 0.6
11 | O=C(Cn1c(=O)c2nncn2c2ncccc21)NCc1ccc(Cl)cc1 | -11% | 1.82
12 | Cc1ccc(C(=O)NC(c2ccccn2)[C@H]2C[C@H](O)C2)cc1O (some centres not stated) | -13% | 2.2
13 | CC(C)CCOC(=O)[C@H](C)N1C(=O)CCC1=O | 4% | -0.33
14 | CC(C)[C@@H](N)C(=O)NCCc1ccc(F)cc1 | -2% | 0.35
15 | O=C(NCc1nc2cc(Br)c[nH]c-2n1)c1ccccc1 | -8% | 1.07
16 | C[C@]1(c2cccnc2)NC(=O)N(Cc2ccc(F)c(Cl)c2)C1=O | -2% | 0.31
17 | CCN1C[C@H](NS(=O)(=O)Cc2ccccc2)[C@@H](OC)C1 | -17% | 2.01
18 | Fc1ccccc1CNc1nnc2n1CCCCC2 | -31% | 3.67
19 | O=C(c1ccc2ncsc2c1)N1CCC[C@H]1c1ccc2c(c1)OCCCO2 | 14% | -1.73
20 | COc1cccc(-n2c(=O)c(C(=O)NCc3ccccc3Cl)c(O)c3cccnc32)c1 | -10% | 1.34
21 | CCn1cc(-c2ccc(Cl)cc2)cc1C(=O)NCc1ccccn1 | -2% | 0.24
22 | CCOc1cc(CNc2ccc(Oc3ccccc3)cc2)cc(Cl)c1OCc1ccccc1Cl | 30% | -3.34

Row | Structure (SMILES) | % Inhibition | Z score
23 | Cc1nc([C@H](C)N(C)C(=O)c2n[nH]c3c2COCC3)c(C)s1 | -22% | 2.39
24 | CC(=O)N(CCc1nc(-c2ccc(C)s2)cs1)C(C)C | -3% | 0.47
25 | C[C@H](NC(=O)CCc1ccncc1)c1ccc(-c2cccnc2)cc1 | 1% | -0.16
26 | O=C(NC[C@@H]1CCCO1)c1cc(COc2cncc(Cl)c2)on1 | -16% | 1.65
27 | NCCCn1cc(-c2ccc(OCC(F)(F)F)cc2F)cn1 | 7% | -1.34
28 | COc1ccc(C)cc1NC(=O)[C@H]1CCCN(c2cn[nH]c(=O)c2)C1 | 36% | -4.08
29 | COc1ncc(Br)c2ncccc12 | -11% | 2.1
30 | CCOc1ccc(NC(=O)Cc2nc(-c3cccnc3)n[nH]2)cc1 | -18% | 2.9
31 | CC1CCN(C(=O)c2nc[nH]c2C(=O)NC2CCCCC2)CC1 | 15% | -1.7
32 | CC(C)n1cnnc1Cn1ncc(N(C)C)cc1=O | 0% | 0.01
33 | c1ccc(-c2noc(-c3nnc(NCCN4CCOCC4)c4ccccc34)n2)cc1 | 7% | -0.83
34 | CC(NC(=O)NCc1ccccc1)C1CCCO1 (configuration not stated) | 11% | -1.43
35 | CC(N)CC(=O)N1CCCC2(CCCc3ccccc32)C1 (configuration not stated) | 2% | -0.33
36 | CCn1cc(-n2cnc(CCNC(C)=O)c2)c(C)n1 | -3% | 0.52
37 | O=C(NCC1(c2ccncc2)CC1)c1ccc(CO)cc1 | 0% | 0.07
38 | Cc1nc(N2CCOCC2)sc1-c1nnc2n1CC(C)(C)CC2 | -6% | 1.12
39 | CCOC(=O)C1CCN(c2nc(-c3ccccc3F)c3c(N)n(C)nc3n2)CC1 | -6% | 1
40 | Cc1nccc(N2CCN(c3nccn(C)c3=O)CC2)n1 | -3% | 0.53
41 | CCc1cc(C(=O)N2CCC3(CCC(=O)N(Cc4cccnc4)C3)CC2)ccn1 | -6% | 0.96
42 | CO[C@H]1CN(c2ccc(C)cc2)C12CCN(C(=O)c1ccnn1C)CC2 | -15% | 1.92
43 | Cc1[nH]nc2c1[C@H](c1cnn(C)c1)c1c(ncn3nc(-c4c(Cl)c(C(F)(F)F)nn4C)nc13)O2 | 4% | -0.51
44 | O=S1(=O)CC[C@H](N2CCCCCC2)C1 | -14% | 1.68

Row | Structure (SMILES) | % Inhibition | Z score
45 | CN[C@@H](C(=O)OC)c1cc(F)c(F)c(F)c1 | 4% | -0.54
46 | CC(C)C[C@H]1NC(=O)c2cc(F)ccc2OCCn2cc(nn2)CCN(Cc2cscn2)CCNC1=O | -11% | 2.09
47 | Cn1nccc1C(=O)N1CC[C@H](Cc2noc(C3CC3)n2)C1 | -6% | 0.8
48 | COc1ccc(Cc2nc3c4cnn(-c5cccc(F)c5)c4ncn3n2)cc1 | 13% | -1.47
49 | COc1ccc(CN(C)[C@H]2CCc3nn(C)c(=O)n3CC2)cc1Cn1cccn1 | -6% | 0.99
50 | Cc1nc2c(s1)CCC[C@@H]2NC(=O)c1ccc2c(c1)OCO2 | -6% | 1.18
51 | C[C@@H](c1cc2ccccc2[nH]1)N(C)C(=O)c1ccc(CCC(C)(C)O)cc1 | -12% | 2.34
52 | Clc1cnc(N2CCCC3(C2)OCCO3)c(Cl)c1 | 2% | -0.37
53 | O=S(=O)(Cc1cccc(C(F)(F)F)c1)Nc1ccon1 | -9% | 1.18
54 | O=C(CCn1ccc2ccccc21)N1CCCC1 | -10% | 1.31
55 | O=c1cccc2n1CC1CC2CN(c2nc(NC3CCCCC3)nc(N3CCOCC3)n2)C1 (configuration not stated) | 2% | -0.32
56 | CC(C)c1scnc1C(=O)N[C@@H](C)c1ccccn1 | 6% | -0.69
57 | COc1cccc(C(=O)N2[C@H](C(=O)NCc3ccccn3)COC23CCN(C(=O)c2ccc(Cl)c(Cl)c2)CC3)c1 | -9% | 1.29
58 | Cc1cccc(N2CCN(C(=O)Nc3nc(C)c(C)o3)CC2)c1C | -14% | 2.79
59 | COc1ccc(-c2ncnc(N3CCN(C)CC3)c2N)cc1 | 5% | -0.68
60 | Cc1csc([C@H](C)NC(=O)c2coc(COc3cccc4cccnc34)n2)n1 | 2% | -0.22
61 | CCS(=O)(=O)N1CCC[C@H]1c1cccs1 | -4% | 0.74
62 | O=C(N[C@@H]1COCC[C@@H]1OCc1ccccc1)c1ccon1 | -5% | 1.06
63 | Cc1ccccc1-c1nc(N)n(C(=O)C2CCCCC2)n1 | -4% | 0.67
64 | O=C(c1cc(C2CC2)[nH]n1)N1CCCCC1 | -13% | 1.13
65 | CCC[C@H]1CN(Cc2ccc3cn[nH]c3c2)CCO1 | -22% | 3.16
66 | CCOCCCNC(=O)[C@@H](c1ccc(OC)cc1)N(Cc1ccc2c(c1)OCO2)C(=O)c1ccccc1O | -4% | 0.62

Row | Structure (SMILES) | % Inhibition | Z score
67 | Cc1ccc(NS(=O)(=O)c2cc(-c3ccno3)oc2C)c(C)c1 | -10% | 1.18
68 | O=C(O)c1nc2ccccc2cc1C1CC1 | -2% | 0.38
69 | Cc1[nH][nH]c(=O)c1CC(=O)NCc1ccc2sccc2c1 | -13% | 2.17
70 | Cc1cc(=O)c(C(=O)Nc2ccc(CN3CCC[C@H](C)C3)cc2)c[nH]1 | -5% | 0.6
71 | CC(C)OCCCC(=O)N(C)c1ccnn1C | -10% | 1.39
72 | O=C(CCn1cncn1)N(Cc1ccoc1)C1CCCCC1 | -2% | 0.41
73 | C[C@H](CCC(=O)Nc1cc(F)c(F)c(F)c1)[C@H]1CC[C@H]2[C@@H]3CC[C@@H]4C[C@H](O)CC[C@]4(C)[C@H]3C[C@H](O)[C@]12C | -7% | 0.86
74 | C[C@H](O)C1CCN(C(=O)Cc2ccon2)CC1 | 0% | -0.05
75 | CCOc1ncccc1C(=O)N[C@H]1C[C@@H](c2cc(NC)ncn2)C1 | -7% | 0.91
76 | CCCCN(C)C(=O)Nc1cc(OC)ncn1 | -5% | 0.78
77 | Cc1cnccc1NC(=O)N[C@@H](C)c1ccc(OC(F)F)cc1 | -6% | 0.54
78 | Cc1cc(C)c(C(=O)NCCOCC(F)F)c(C)c1 | -12% | 2.47
79 | COc1nc(C)c(C(=O)N2CCOC[C@@H](CO)C2)s1 | -2% | 0.33
80 | CC(C)n1nccc1NS(=O)(=O)c1ccc2c(c1)OCCO2 | -15% | 2.34
81 | Cc1cc(C)n(C[C@H](O)COc2cccc3[nH]ccc23)n1 | -7% | 0.89
82 | Cc1cccc(-c2cn[nH]c2C2CCNCC2)c1 | 5% | -0.68
83 | Cc1cccc(C)c1-n1ncc(C(=O)NC2CCCC2)c1C1CCN(C(=O)OC(C)(C)C)CC1 | 2% | -0.23
84 | Cc1cc(C)nc(CNC(=O)N2CCC3(CC2)COC(=O)O3)n1 | -1% | 0.17
85 | CCc1nc(CN2CC[C@](C)(O)[C@H](C)C2)cs1 | -11% | 1.11
86 | O=C(c1nn(-c2ccccc2F)cc1O)N1CCN2CCS(=O)(=O)C[C@@H]2C1 | -13% | 2.05
